Out of some 420,000 compounds screened, about 64,000 (15%) were called active. Inconclusive results, whose numbers are uncertain, are shown with a selection of clear calls. The call rests on the fitted dose curve; in most records, active means well fitted inhibition curve with a large enough effect; inconclusive means small, poorly fitted or top-dose-only effect; inactive means flat fitted curve, though single readings scatter. Potencies of inconclusive entries are left out as doubtful fits.
Assay: qHTS for Inhibitors of human tyrosyl-DNA phosphodiesterase 1 (TDP1): qHTS in cells in absence of CPT; further: nearly all actives have a fitted effect of over 55% in size
Conditions: DT40 Tdp1-/- hTDP1 cells, no CPT, ATP luminescence, 48 h; activity change, negative = growth inhibition: at 46.2 µM (top of the series)
Procedure, shortened: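 Seeded 400 DT40-hTDP1 cells/well (vehicle DMSO, no 20 nM CPT); pinned compounds; ≥48 hr at 37 °C; CellTiter-Glo luminescence as viability measure.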
For `NC(=O)c1nsc(C(=O)N(c2cccc(F)c2)C(C(=O)NCC2CCCO2)c2cccs2)c1N` (stereo not drawn), the Potency was inconclusive [inhibitor, single point].
In the case of `O=c1c2cc(N3CCOCC3)ccc2[nH]c(=S)n1CCc1ccccc1`, the Potency is reported as inconclusive [inhibitor, partial curve].
With `COc1ccc(NC(=O)CSc2ccc(NC(C)=O)cc2)cc1S(=O)(=O)N1CCCCC1` the Potency was inconclusive [inhibitor, single point].
For `CCCN1C(=O)/C(=C2\SC(=S)N(c3c(C)n(C)n(-c4ccccc4)c3=O)C2=O)c2ccccc21`, the activity change, negative = growth inhibition was inconclusive: -30.7% [inhibitor].
For `CS(=O)(=O)Nc1cccc(-c2nccc(NCc3ccccc3)n2)c1`, the Potency was inconclusive [inhibitor, partial curve, poor fit].
For `O=C(NC(O)C(=O)c1ccccc1)c1ccc(F)cc1` (stereo not drawn), the Potency was inconclusive [inhibitor, single point].
In the case of `COc1ccc(-c2coc3c(C(=O)NCCN(C)C)cccc23)c(C)c1`, the Potency is reported as inconclusive [inhibitor, single point].
With `Cc1c(/C=C/C(=O)c2ccccc2)cnn1C` the Potency was inconclusive [inhibitor, single point].
In the case of `C=CCn1c(COc2ccc(OC)cc2)nc2ccccc21`, the Potency is reported as inconclusive [inhibitor, single point].
With `COc1ccccc1N1C(=O)C2C3CC(c4ccccc4)C(C3)C2C1=O` (stereo not drawn) the Potency was inconclusive [inhibitor, single point].
For `COc1cc(C(=O)NCCCNc2nc3cc(C)cc(C)c3cc2C#N)cc(OC)c1OC`, the Potency was inconclusive [inhibitor, single point].
With `COc1cccc(NC(=O)CN(C)C(=O)Cc2c(C)nc3ccccc3c2C)c1` the Potency was inconclusive [inhibitor, single point].
For `C=Cn1cc(CNC[C@H]2O[C@@H](n3ccc(N)nc3=O)[C@H](O)[C@@H]2O)c(C)n1`, the Potency was “inactive”.
With `O=C(Nc1cccc(Cl)c1)OCc1cn(-c2ccccc2)nn1` the Potency was inconclusive [inhibitor, single point].
In the case of `Cc1ccc(OCCCN(C)C)c(Br)c1`, the Potency is reported as “inactive”.
In the case of `CCN1C(=O)N(CC)C(O)(c2ccccc2)C1(O)c1ccccc1` (stereo not drawn), the Potency is reported as “inactive”.
For `CC(C)(C)NCC(O)COc1ccc(Br)cc1` (stereo not drawn), the Potency was “inactive”.
For `COc1ccc(-c2nc(CN3CCCC(C(=O)NC4CCCC4)C3)c(C)o2)cc1` (stereo not drawn), the Potency was inconclusive [inhibitor, single point].
For `CCOC(=O)C1=C(COc2ccccc2)NC(=O)NC1c1ccc2ccccc2c1` (stereo not drawn), the Potency was active: 20.6 µM.
With `CCCc1cc(=O)[nH]c(SCC(=O)c2c[nH]c3ccccc23)n1` the Potency was inconclusive [inhibitor, single point].
In the case of `COc1ccc(-c2cc(C(F)F)n3ncc(C(=O)N4CCN(C)CC4)c3n2)cc1`, the Potency is reported as “inactive”.
For `Cc1ccc(NC(=O)C2CCC(CNS(=O)(=O)c3cccs3)CC2)cc1C` (stereo not drawn), the Potency was active: 14.6 µM.
In the case of `CC(=O)N1Cc2cc(C(=O)NCc3cccc(F)c3)nc(-c3cccc(C4=CCCC4)c3)c2[C@H]1CCO`, the Potency is reported as inconclusive [inhibitor, single point].
With `Cc1ccc(S(=O)(=O)Nc2ccc(C(=O)Nc3cc(C)on3)cc2)cc1` the Potency was “inactive”.
In the case of `O=C(C[n+]1ccsc1)c1ccccc1`, the Potency is reported as inconclusive [inhibitor, single point].
With `CCn1cc(CN(C)C(=O)/C=C/c2ccc([N+](=O)[O-])cc2)c(C)n1` the Potency was active: 14.6 µM.
With `CC(C)(C)C1CCc2c(sc3ncn(N)c(=N)c23)C1` (stereo not drawn) the Potency was active: 6.51 µM.
In the case of `CCCc1c2ccccc2nc2ccccc12`, the Potency is reported as inconclusive [inhibitor, partial curve].
With `COc1cccc(C(O)c2ncc(-c3cccc(C(F)(F)F)c3)[nH]2)c1` (stereo not drawn) the Potency was inconclusive [inhibitor, single point].
In the case of `CN(C)c1ccc(C(=S)NCc2ccco2)cc1`, the Potency is reported as inconclusive [inhibitor, single point].
With `CC(=O)N1CCc2ccc(S(=O)(=O)N3CC(C)OC(C)C3)cc21` (stereo not drawn) the Potency was inconclusive [inhibitor, single point].
With `CCC(=O)N1c2ccc(S(=O)(=O)CCC(=O)NCc3ccc(OC)cc3)cc2CC1C` (stereo not drawn) the Potency was inconclusive [inhibitor, single point].
In the case of `Cc1nc2ccccc2n1/N=C/c1ccc([N+](=O)[O-])o1`, the Potency is reported as active: 2.91 µM.
With `Cc1ccc(C)c(N2CCN(S(=O)(=O)c3ccc4c(c3)NC(=O)CC(=O)N4)CC2)c1` the Potency was inconclusive [inhibitor, single point].
In the case of `O=C(NNS(=O)(=O)c1cccc(Cl)c1Cl)c1cccc(S(=O)(=O)N2CCOCC2)c1`, the Potency is reported as “inactive”.
In the case of `Clc1ccc(SCCCCN2CCOCC2)cc1`, the Potency is reported as “inactive”.
With `COc1ccc(S(=O)(=O)N2CCCCCC2)cc1C(=O)Nc1ccc(C)cn1` the Potency was inconclusive [inhibitor, partial curve].
In the case of `COc1ccc(/C=N\NC(=O)C2COc3ccccc3O2)cc1O` (stereo not drawn), the Potency is reported as inconclusive [inhibitor, partial curve].
With `COc1ccc(Cc2nc3ccc(C(=O)N4CCCC4)cc3o2)cc1` the Potency was “inactive”.
In the case of `CCN(CC)S(=O)(=O)c1cc(C(=O)Nc2nncs2)c(Cl)cc1Cl`, the Potency is reported as “inactive”.
For `O=C(NCCc1cn2ccccc2n1)c1cc(COc2c(F)cccc2F)on1`, the Potency was inconclusive [inhibitor, single point].
For `CC(=O)Nc1ccc(NC(=S)NC(=O)c2oc3ccccc3c2C)cc1`, the Potency was inconclusive [inhibitor, partial curve].
For `CC(C)C(C(=O)NC1CCCC1)N1CCC(O)(c2ccc(Cl)cc2)CC1` (stereo not drawn), the activity change, negative = growth inhibition was inconclusive: -35.7% [inhibitor].
In the case of `COCc1ccc(C(=O)N2CCOc3c(cc(-c4cc(C)c5cccc(OC)c5n4)cc3OC)C2)o1`, the Potency is reported as “inactive”.
For `COc1ccc(C/C(N)=N/OC(=O)c2ccco2)cc1OC`, the Potency was “inactive”.
In the case of `CC(C)CNC(=O)CSc1nc(-c2cccs2)cc(C(F)(F)F)n1`, the Potency is reported as inconclusive [inhibitor, single point].
With `CCc1cccc(C)c1Nc1c(-c2cccs2)nc2ncccn12` the Potency was active: 16.4 µM.
For `Cc1ccccc1Cn1nnc2c1C(=O)c1ccccc1C2=O`, the Potency was active: 6.51 µM.
For `CC(=O)c1c(N2CCOCC2)nc(=S)n(Cc2ccccc2)c1C`, the Potency was inconclusive [inhibitor, single point].
With `Cc1cc(C)c(S(=O)(=O)NCC(c2ccco2)S(=O)(=O)c2ccccc2)c(C)c1` (stereo not drawn) the Potency was inconclusive [inhibitor, single point].
In the case of `CCOC(=O)c1ccccc1NC(=O)Cc1ccc(OC)c(S(=O)(=O)N2CCOCC2)c1`, the Potency is reported as inconclusive [inhibitor, single point].
With `COc1ccc(/C=C/C(=O)NCCOc2ccccc2OC)cc1` the Potency was inconclusive [inhibitor, single point].
With `CN(Cc1ccccn1)Cc1nc(-c2ccc(Cl)cc2)no1` the Potency was “inactive”.
With `CC1(C)Cc2c(sc(NC(=O)c3ccc(Br)o3)c2C#N)CO1` the Potency was inconclusive [inhibitor, partial curve].
For `CC(C)c1ccc(N(C(=O)c2ccco2)C(C(=O)NC2CCCC2)c2cccnc2)cc1` (stereo not drawn), the Potency was inconclusive [inhibitor, partial curve].
In the case of `CC1CCN(c2[nH]c(=S)c(C#N)c3c2CCCC3)CC1`, the Potency is reported as inconclusive [inhibitor, partial curve].
For `COC(=O)c1cc(NC(=S)NCc2ccc(Cl)cc2)cc(C(=O)OC)c1`, the Potency was inconclusive [inhibitor, single point].
For `Cc1ccc(CN=Cc2[nH]c3ccc(Br)c(Cl)c3c2O)cc1`, the Potency was active: 20.6 µM.
For `O=C(Nc1ccc(F)c(F)c1)c1ccc(=O)n(Cc2ccc(F)cc2)c1`, the Potency was inconclusive [inhibitor, partial curve].
In the case of `COc1ccc(NC(=O)COCc2cc(-c3ccco3)on2)cc1Cl`, the Potency is reported as “inactive”.
In the case of `COCCNC(=O)CN(C(=O)CCC(=O)Nc1cc(C)on1)c1ccc(C)cc1C`, the Potency is reported as “inactive”.
With `CC(=O)c1cccc(S(=O)(=O)NCCC(=O)Nc2ccc(S(N)(=O)=O)cc2)c1` the Potency was “inactive”.
With `Cc1cc(C)c(OC2(c3ccccc3)OC(=O)c3ccccc32)c(C)c1` (stereo not drawn) the Potency was inconclusive [inhibitor, single point].
With `Cn1cnnc1SCCOc1ccc(Cl)cc1` the Potency was “inactive”.
For `CC1=C(C(=O)Nc2cc(C)cc(C)c2)C2(CCCCC2)OC1=O`, the Potency was “inactive”.
In the case of `CC(C)c1ccc(S(=O)(=O)NCc2nc3cccnc3n2Cc2ccc(F)cc2)cc1`, the Potency is reported as inconclusive [inhibitor, single point].
For `CCCCn1c(SCC(=O)Nc2ccc3c(c2)OCO3)nc2c1c(=O)n(C)c(=O)n2C`, the Potency was inconclusive [inhibitor, single point].
In the case of `COc1ccc(-c2cnc3c(NC=O)cc(-c4cc(OC)c(OC)c(OC)c4)cn23)cc1OC`, the Potency is reported as active: 5.17 µM.
With `Oc1c(Br)cc(/C=N/NC(=S)NCC2CCCO2)cc1Br` (stereo not drawn) the Potency was inconclusive [inhibitor, single point].
For `COc1cc(/C=N/O)cc(Cl)c1OC`, the Potency was “inactive”.
For `Cc1ccc(NC(=O)N2C3CCCC2CC(NC(=O)C(C)(C)C)C3)cc1` (stereo not drawn), the Potency was “inactive”.
For `O=C(CSc1nc2ccccc2c(=O)n1CC1CCCO1)Nc1ccccc1Cl` (stereo not drawn), the Potency was “inactive”.
In the case of `C=C1C(=O)OC2C1CCC(C)C1C=CC(=O)C12C` (stereo not drawn), the Potency is reported as active: 2.91 µM.
On the % scale 0 is the no-effect control and ±100 the full control effect; potency means the concentration at half of the fitted maximal effect; tags describe the fitted curve by direction and shape.
